# The supplement of paper PMC8728848
# Some of the results follow.
# Tests used:
# Assay in all cases: glycan array binding signal (z-score within array); higher = stronger binding
# Conditions in all cases: glycan notation: IUPAC condensed, linker removed
# [1] = target: Gal(b1-4)GlcNAc(b1-3)Gal(b1-4)GlcNAc(b1-3)[Gal(b1-4)GlcNAc(b1-3)Gal(b1-4)GlcNAc(b1-6)]GalNAc
# Summary of the method: (§1)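 The Consortium for Functional Glycomics database supplied 3228 glycan arrays, of which those lacking an available protein sequence were dropped. The binding signal, a within-array Z-score, was averaged across arrays of the same protein sequence and across linkers. Negative scores can be read as non-binding.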
# [2] = target: Gal(b1-4)GlcNAc(b1-3)Gal(b1-4)GlcNAc(b1-6)[Gal(b1-3)]GalNAc
# Summary of the method: as §1
# [3] = target: Gal(b1-4)GlcNAc(b1-3)Gal(b1-4)[Fuc(a1-3)]GlcNAc(b1-3)Gal(b1-4)[Fuc(a1-3)]GlcNAc
# Summary of the method: as §1
# [4] = target: Gal(b1-4)GlcNAc(b1-3)GalNAc
# Summary of the method: as §1
# [5] = target: Gal(b1-4)GlcNAc(b1-3)[Fuc(a1-3)GlcNAc(b1-6)]Gal(b1-4)Glc
# Summary of the method: as §1
# [6] = target: Gal(b1-4)GlcNAc(b1-3)[Gal(b1-4)GlcNAc(b1-6)]Gal(b1-4)GlcNAc
# Summary of the method: as §1
# [7] = target: Gal(b1-4)GlcNAc(b1-3)[GlcNAc(b1-6)]Gal(b1-4)GlcNAc
# Summary of the method: as §1
# [8] = target: Gal(b1-4)GlcNAc(b1-6)Gal(b1-4)GlcNAc
# Summary of the method: as §1
# [9] = target: Gal(b1-4)GlcNAc(b1-6)GalNAc
# Summary of the method: as §1
# [10] = target: Gal(b1-4)GlcNAc(b1-6)[Gal(b1-3)]GalNAc
# Summary of the method: as §1
# [11] = target: Gal(b1-4)GlcNAc(b1-6)[Gal(b1-4)GlcNAc(b1-3)]GalNAc
# Summary of the method: as §1
# Gal(b1-4)GlcNAc6P = target: Gal(b1-4)GlcNAc6P
# Summary of the method: as §1
# Gal(b1-6)Gal = target: Gal(b1-6)Gal
# Summary of the method: as §1
# Gal3S(b1-3)GalNAc = target: Gal3S(b1-3)GalNAc
# Summary of the method: as §1
# Gal3S(b1-3)GlcNAc = target: Gal3S(b1-3)GlcNAc
# Summary of the method: as §1
# [12] = target: Gal3S(b1-3)[Fuc(a1-4)]GlcNAc
# Summary of the method: as §1
# Gal3S(b1-4)Glc = target: Gal3S(b1-4)Glc
# Summary of the method: as §1
# Gal3S(b1-4)Glc6S = target: Gal3S(b1-4)Glc6S
# Summary of the method: as §1
# Gal3S(b1-4)GlcNAc = target: Gal3S(b1-4)GlcNAc
# Summary of the method: as §1
# [13] = target: Gal3S(b1-4)[Fuc(a1-3)]Glc6S
# Summary of the method: as §1
# [14] = target: Gal3S(b1-4)[Fuc(a1-3)]GlcNAc
# Summary of the method: as §1
# [15] = target: Gal3S(b1-4)[Fuc(a1-3)]GlcNAc6S
# Summary of the method: as §1
# Gal3S4S(b1-4)GlcNAc = target: Gal3S4S(b1-4)GlcNAc
# Summary of the method: as §1
# Gal3S6S(b1-4)GlcNAc = target: Gal3S6S(b1-4)GlcNAc
# Summary of the method: as §1
# Gal3S6S(b1-4)GlcNAc6S = target: Gal3S6S(b1-4)GlcNAc6S
# Summary of the method: as §1
# Gal4S(b1-4)GlcNAc = target: Gal4S(b1-4)GlcNAc
# Summary of the method: as §1
# Gal4S6S(b1-4)GlcNAc = target: Gal4S6S(b1-4)GlcNAc
# Summary of the method: as §1
# Gal6P(b1-4)GlcNAc = target: Gal6P(b1-4)GlcNAc
# Summary of the method: as §1
# Gal6S(b1-3)GlcNAc = target: Gal6S(b1-3)GlcNAc
# Summary of the method: as §1
# Gal6S(b1-3)GlcNAc6S = target: Gal6S(b1-3)GlcNAc6S
# Summary of the method: as §1
# Gal6S(b1-4)Glc = target: Gal6S(b1-4)Glc
# Summary of the method: as §1
# Gal6S(b1-4)Glc6S = target: Gal6S(b1-4)Glc6S
# Summary of the method: as §1
# Gal6S(b1-4)GlcNAc = target: Gal6S(b1-4)GlcNAc
# Summary of the method: as §1
# Gal6S(b1-4)GlcNAc6S = target: Gal6S(b1-4)GlcNAc6S
# Summary of the method: as §1
# GalNAc(a1-3)Gal = target: GalNAc(a1-3)Gal
# Summary of the method: as §1
# GalNAc(a1-3)GalNAc = target: GalNAc(a1-3)GalNAc
# Summary of the method: as §1
# [16] = target: GalNAc(a1-3)GalNAc(b1-3)Gal(a1-4)Gal(b1-4)Glc
# Summary of the method: as §1
# [17] = target: GalNAc(a1-3)GalNAc(b1-3)Gal(a1-4)Gal(b1-4)GlcNAc
# Summary of the method: as §1
# GalNAc(b1-3)Gal = target: GalNAc(b1-3)Gal
# Summary of the method: as §1
# [18] = target: GalNAc(b1-3)Gal(a1-4)Gal(b1-4)GlcNAc
# Summary of the method: as §1
# [19] = target: GalNAc(b1-3)Gal(a1-4)Gal(b1-4)GlcNAc(b1-3)Gal(b1-4)Glc
# Summary of the method: as §1
# [20] = target: GalNAc(b1-3)Gal(a1-6)Gal(b1-4)Glc
# Summary of the method: as §1
# GalNAc(b1-3)GalNAc = target: GalNAc(b1-3)GalNAc
# Summary of the method: as §1
# GalNAc(b1-3)GlcNAc = target: GalNAc(b1-3)GlcNAc
# Summary of the method: as §1
# GalNAc(b1-4)Gal(b1-4)Glc = target: GalNAc(b1-4)Gal(b1-4)Glc
# Summary of the method: as §1
binder,measurement,setting,value
DrGal3 (Danio rerio) (protein) MDLSDALDAPPQQNNQQAGGPVWPGQPANPVWPGQPANPTWPGQPNQPAWPGQPNQQWPGQPGQPTAPGWPGPAPQTGPYGAPGQAPQVLTVPLDFPLQNGAYNKMLITINGEVKPNAKQFTVNLRRGNDIAFHINPRFSEGGKPVIVRNSMIGNNWGREERELPSFPFVPGKPFEMKILITDTEYKVAVNKSHLLEFKHRVFELNQITGLSIYNDVTLSTVNVETLQ,glycan array binding signal (z-score),[1],0.159
same,glycan array binding signal (z-score),[2],-0.147
same,glycan array binding signal (z-score),[3],-0.223
same,glycan array binding signal (z-score),[4],-0.269
same,glycan array binding signal (z-score),[5],-0.169
same,glycan array binding signal (z-score),[6],-0.258
same,glycan array binding signal (z-score),[7],-0.229
same,glycan array binding signal (z-score),[8],-0.144
same,glycan array binding signal (z-score),[9],-0.192
same,glycan array binding signal (z-score),[10],-0.235
same,glycan array binding signal (z-score),[11],-0.218
same,glycan array binding signal (z-score),Gal(b1-4)GlcNAc6P,-0.184
same,glycan array binding signal (z-score),Gal(b1-6)Gal,-0.229
same,glycan array binding signal (z-score),Gal3S(b1-3)GalNAc,-0.185
same,glycan array binding signal (z-score),Gal3S(b1-3)GlcNAc,-0.186
same,glycan array binding signal (z-score),[12],-0.212
same,glycan array binding signal (z-score),Gal3S(b1-4)Glc,-0.251
same,glycan array binding signal (z-score),Gal3S(b1-4)Glc6S,-0.196
same,glycan array binding signal (z-score),Gal3S(b1-4)GlcNAc,-0.25
same,glycan array binding signal (z-score),[13],0.006
same,glycan array binding signal (z-score),[14],-0.154
same,glycan array binding signal (z-score),[15],-0.106
same,glycan array binding signal (z-score),Gal3S4S(b1-4)GlcNAc,-0.258
same,glycan array binding signal (z-score),Gal3S6S(b1-4)GlcNAc,-0.226
same,glycan array binding signal (z-score),Gal3S6S(b1-4)GlcNAc6S,-0.202
same,glycan array binding signal (z-score),Gal4S(b1-4)GlcNAc,-0.261
same,glycan array binding signal (z-score),Gal4S6S(b1-4)GlcNAc,-0.248
same,glycan array binding signal (z-score),Gal6P(b1-4)GlcNAc,-0.258
same,glycan array binding signal (z-score),Gal6S(b1-3)GlcNAc,-0.255
same,glycan array binding signal (z-score),Gal6S(b1-3)GlcNAc6S,-0.174
same,glycan array binding signal (z-score),Gal6S(b1-4)Glc,-0.239
same,glycan array binding signal (z-score),Gal6S(b1-4)Glc6S,-0.24
same,glycan array binding signal (z-score),Gal6S(b1-4)GlcNAc,-0.208
same,glycan array binding signal (z-score),Gal6S(b1-4)GlcNAc6S,-0.252
same,glycan array binding signal (z-score),GalNAc(a1-3)Gal,-0.25
same,glycan array binding signal (z-score),GalNAc(a1-3)GalNAc,-0.246
same,glycan array binding signal (z-score),[16],-0.259
same,glycan array binding signal (z-score),[17],-0.217
same,glycan array binding signal (z-score),GalNAc(b1-3)Gal,-0.225
same,glycan array binding signal (z-score),[18],0.108
same,glycan array binding signal (z-score),[19],-0.174
same,glycan array binding signal (z-score),[20],-0.285
same,glycan array binding signal (z-score),GalNAc(b1-3)GalNAc,-0.257
same,glycan array binding signal (z-score),GalNAc(b1-3)GlcNAc,-0.265
same,glycan array binding signal (z-score),GalNAc(b1-4)Gal(b1-4)Glc,-0.253
